Reference: PubChem BioAssay AID485281 (National Center for Advancing Translational Sciences (NCATS), 2010)
In all, about 350,000 compounds went through this assay and about 260 (0.074%) were called active. The inconclusive results got no clear call from the source; some entries with a clear call stand among them for comparison. Calls come from the whole dose curve; as a rule, active = well fitted inhibition curve with a large enough effect; inconclusive = small, poorly fitted or top-dose-only effect; inactive = no such curve, though single readings can be large or run the other way. A potency beside an inconclusive call is a rough fit, not a confirmed value.

target: Ferritin light chain (Equus caballus) (UniProt P02791); experiment: qHTS Assay for Identification of Novel General Anesthetics; details: apoferritin/1-aminoanthracene competitive binding, fluorescence; activity change, negative = displacement: at 77.5 µM (top of the series); note: nearly all actives have a fitted effect of over 20% in size
Chain of UniProt P02791 (P02791 whole entry, looked up): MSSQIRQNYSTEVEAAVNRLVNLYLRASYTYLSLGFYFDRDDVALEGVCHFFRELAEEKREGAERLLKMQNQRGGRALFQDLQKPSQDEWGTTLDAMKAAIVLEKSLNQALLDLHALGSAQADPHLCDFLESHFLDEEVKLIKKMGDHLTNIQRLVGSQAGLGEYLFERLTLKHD
Method in brief: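 In PBS, apoferritin at 10 uM is loaded with 1-AMA from a 50% saturated solution. After 10 min of compound exposure at ambient temperature, reduced 535 nm fluorescence indicates probe displacement.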
% is set by controls: 0 for no effect and ±100 for the full control effect; potency is the fitted concentration of half-maximal effect; tags give direction and shape of the fitted curve.

Compound | Potency | activity change, negative = displacement
CCCCCCCC1=CC2=CC(=O)C(C)(OC(C)=O)C(=O)C2=CN1CCc1ccccc1 (stereo not given) | inconclusive: 50.1 µM [inhibitor, single point] | 
CC(=O)Oc1cccc(/C=C2\Sc3ccccc3C2=O)c1 |  | inactive: -11.8%
N#Cc1c(-n2ncnc2-c2cccc(Cl)c2)sc2c1CCCCC2 | inconclusive: 31.6 µM [inhibitor, partial curve] | 
O=c1[nH]ncc2c3ccccc3n(Cc3ccc(F)cc3)c12 | inconclusive: 28.2 µM [inhibitor, partial curve] | 
Cc1c(Cl)cccc1-n1nnnc1-c1cccs1 | inconclusive: 20 µM [inhibitor, partial curve] | 
COC(=O)c1cccc(OCC(O)Cn2cnc3cc(C)c(C)cc32)c1 (stereo not given) | inconclusive: 35.5 µM [inhibitor, partial curve] | 
Cc1cccc(CSCCNC(=S)Nc2ccccc2)c1 |  | inactive: -2.99%
O=C(Cn1cnc2scc(-c3cccc([N+](=O)[O-])c3)c2c1=O)NCc1ccco1 | inconclusive: 39.8 µM [inhibitor, single point] | 
CCCCC(C)/C=C(C)/C=C(\C)C(=O)NC1=CC(O)(/C=C/C=C/C=C/C(=O)NC2=C(O)CCC2=O)C2OC2C1=O (stereo not given) |  | inactive: -23.5%
O=c1[nH]c(SCc2ccccc2)nc2ccsc12 | inconclusive: 10 µM [inhibitor, partial curve] | 
c1cc2c(cc1-c1csc(NNC3=NCCCCC3)n1)OCCO2 | inconclusive: 35.5 µM [inhibitor, single point] | 
O=C(c1cc(COc2ccc(F)cc2Cl)on1)N(CCO)Cc1cccs1 | inconclusive: 28.2 µM [inhibitor, partial curve] | 
COc1ccc(/C=C/c2nc(C#N)c(N3CCC(C(N)=O)CC3)o2)cc1OC |  | inactive: -6.87%
CC1=NN(c2ccc(S(=O)(=O)O)cc2C)C(=O)C1 |  | inactive: -3.01%
CC1CC(C)(C)NC(=S)N1CCCC(=O)NCc1ccccc1 (stereo not given) |  | inactive: -0.68%
COc1cc(/C=C2\SC(=S)N(CC(=O)Nc3cccnc3)C2=O)cc(OC)c1OC | inconclusive: 14.1 µM [inhibitor, partial curve, poor fit] | 
Fc1ccc2[nH]c3c(N4CCc5ccccc5C4)ncnc3c2c1 |  | inactive: -13.5%
CCC(=O)Nc1ccccc1Nc1cc(C#N)c(C#N)cc1[N+](=O)[O-] |  | inactive: -9.57%
COc1ccc(C(=O)c2c(C(F)(F)F)oc3c2C(=O)c2ccccc2C3=O)cc1 | inconclusive: 3.55 µM [inhibitor, full curve] | 
COc1ccc(OC)c(NC(=O)CSc2nnc(Cc3cccn3C)n2CCc2ccccc2)c1 | inconclusive: 25.1 µM [inhibitor, partial curve] | 
COC(=O)c1ccc2[nH]c(C)cc(=O)c2c1 |  | inactive: -14.4%
CCN(CC)S(=O)(=O)c1cccc(NC(=O)Nc2cccc(C(F)(F)F)c2)c1 | inconclusive: 8.91 µM [inhibitor, partial curve] | 
COc1ccc(/C(=N\O)c2ncc(C(F)(F)F)cc2Cl)cc1 | inconclusive: 22.4 µM [inhibitor, single point] | 
Cc1c(OCC(=O)NCC(O)c2ccccc2)ccc2c3c(c(=O)oc12)CCC3 (stereo not given) | inconclusive: 31.6 µM [inhibitor, single point] | 

Compound | Potency | activity change, negative = displacement
C/C(=N\NC(=O)COc1ccc([N+](=O)[O-])cc1)C(C)(C)C | inconclusive: 35.5 µM [inhibitor, partial curve] | 
COc1ccccc1C(=O)NCC(=O)N/N=C/c1ccc2c(c1)OCO2 | inconclusive: 50.1 µM [inhibitor, single point] | 
COc1cc(/C=N\NC(=O)c2ccc(-c3ccccc3)cc2)cc(OC)c1O | inconclusive: 15.8 µM [inhibitor, partial curve] | 
COc1cccc(/C=N/NC(=O)CNC(=O)c2ccc(S(=O)(=O)N3CCCC3)cc2)c1OC | inconclusive: 31.6 µM [inhibitor, partial curve] | 
COc1cc(OC)c2c(-c3cccc(-c4ccc(C(F)(F)F)cc4)c3)cc(=O)oc2c1 | inconclusive: 22.4 µM [inhibitor, partial curve] | 
COc1cccc(OC)c1C(=O)NC(=S)N1CCN(c2ccc(C(F)(F)F)cc2[N+](=O)[O-])CC1 | inconclusive: 7.94 µM [inhibitor, partial curve] | 
COCCN1C(=O)c2[nH]nc(-c3ccccc3O)c2C1c1ccc(OC)cc1 (stereo not given) |  | inactive: -13.5%
CCOc1cc(/C=N\NC(=O)OC(C)(C)C)ccc1OC(=O)c1ccco1 | inconclusive: 35.5 µM [inhibitor, single point] | 
COc1ccc(CNC(=O)COC(=O)c2n[nH]c3ccccc23)cc1 | inconclusive: 35.5 µM [inhibitor, single point] | 
CCOC(=O)C1CCN(Cc2ccc(OCc3ccccc3)cc2)CC1 | inconclusive: 35.5 µM [inhibitor, partial curve] | 
Cc1cc(F)ccc1NC(=O)Nc1ccc2c(c1)OCO2 |  | inactive: -5.03%
O=C(CCCCCN1C(=O)c2ccccc2C1=O)Nc1ccc2c(c1)OCCO2 | inconclusive: 15.8 µM [inhibitor, partial curve] | 
O=C(NCCCN1CCOCC1)c1ccc(NC(=O)C2COc3ccccc3O2)cc1 (stereo not given) | inconclusive: 28.2 µM [inhibitor, single point] | 
C/C(=N\NC(=O)c1ccn(C)n1)c1ccc(NC(=O)c2cccc(F)c2)cc1 |  | inactive: -11%
CC(OC(=O)Cc1coc2cc3c(cc12)CCC3)C(=O)NCc1ccc2c(c1)OCO2 (stereo not given) | inconclusive: 11.2 µM [inhibitor, partial curve] | 
Nc1nonc1C(=Nc1ccccc1)NO | inconclusive: 28.2 µM [inhibitor, partial curve] | 
O=[N+]([O-])c1ccc(S(=O)(=O)Nc2ccc(-c3csc(-c4ccccc4)n3)cc2)cc1 | inconclusive: 10 µM [inhibitor, partial curve] | 
COc1ccc(NC(=O)NNC(=O)c2ccc(Cl)cc2Cl)cc1OC | inconclusive: 22.4 µM [inhibitor, partial curve] | 
COc1ccc(S(=O)(=O)c2cc3cc(C(C)(C)C)cc(O)c3oc2=O)cc1 | inconclusive: 11.2 µM [inhibitor, full curve, poor fit] | 
COc1cccc2cc(C(=O)NCCc3ccccc3)oc12 | inconclusive: 15.8 µM [inhibitor, partial curve] | 
CCOc1nc(Nc2ccccc2F)nc(OCC)n1 |  | inactive: -8.46%
CN(C(=O)c1ccccc1)c1nc2ccccc2s1 | inconclusive: 35.5 µM [inhibitor, partial curve] | 
COc1nc(NCCC2=CCCCC2)nc(OC)n1 | inconclusive: 17.8 µM [inhibitor, partial curve] | 
CCc1ccccc1N(CC)C(=O)C(=O)Nc1ccc2nc3n(c(=O)c2c1)CCCCC3 | inconclusive: 35.5 µM [inhibitor, partial curve] | 

Compound | Potency | activity change, negative = displacement
O=C(O)c1ccccc1NS(=O)(=O)c1ccc(NNC(=S)Nc2ccc(OC(F)F)cc2)c([N+](=O)[O-])c1 |  | inactive: -17.3%
CN1CCN(S(=O)(=O)c2ccc(NC(=O)Cc3ccc([N+](=O)[O-])cc3)cc2)CC1 | inconclusive: 22.4 µM [inhibitor, partial curve] | 
c1ccc(-n2c3ccccc3c3ccccc32)cc1 |  | inactive: 8.29%
CC(=O)C1=C(C)NC(SCC(N)=O)=C(C#N)C1c1ccco1 (stereo not given) |  | inactive: -2.02%
CCN(CC)S(=O)(=O)c1cccc(C(=O)N/N=C/c2ccccn2)c1 |  | inactive: -10.6%
CCNC(=S)N/N=C(\C)c1ccc2ccccc2c1OC(F)F |  | inactive: -4.05%
CC(C)CCSc1nc(N2CCOCC2)c2c(c1C#N)CC(C)(C)OC2 |  | inactive: -8.43%
CCOC(=O)N1CCC(N(C(=O)Nc2ccc(Cl)c(Cl)c2)C(C)CC)CC1 (stereo not given) | inconclusive: 15.8 µM [inhibitor, partial curve] | 
CC(C)Oc1ccc(CNC(=O)CN2C(=O)c3cccnc3Oc3ccc(Cl)cc32)cc1 | inconclusive: 44.7 µM [inhibitor, single point] | 
CC(NC(=O)/C(C#N)=C/c1ccc(Cl)c([N+](=O)[O-])c1)c1ccccc1 (stereo not given) | inconclusive: 50.1 µM [inhibitor, single point] | 
CC(C)(C)N(C=C(Cl)Cl)C(=O)NC1CCCCC1 | inconclusive: 39.8 µM [inhibitor, single point] | 
CC1CCC/C(=C(\C#N)c2nc(-c3cc4ccccc4oc3=O)cs2)C1 (stereo not given) |  | inactive: -17.9%
CCCCN(C)CCNC(=O)c1cc(=O)[nH]c2ccc(S(=O)(=O)N3CCCCCC3)cc12 |  | inactive: -2.36%
FC(F)(F)COc1nc(N/N=C/c2cccnc2)nc(N2CCCCC2c2ccccn2)n1 (stereo not given) | inconclusive: 31.6 µM [inhibitor, partial curve] | 
CCOC(=O)CSc1nnc(-c2cccs2)n1-c1ccccc1 |  | inactive: -14.8%
CCC(=O)Nc1cc(NC(=O)CSc2ncc(-c3ccc(F)cc3)n2Cc2ccco2)ccc1C | inconclusive: 39.8 µM [inhibitor, partial curve] | 
COc1ccc(Cl)cc1C(=O)CSc1nnnn1C1CCCC1 | inconclusive: 28.2 µM [inhibitor, partial curve] | 
CCCCC(CC)CNC(=O)c1[nH]c(C)c(C(C)=O)c1C (stereo not given) | inconclusive: 39.8 µM [inhibitor, single point] | 
Cc1cc(=O)oc(C)c1C(=O)OCC(=O)c1ccc2ccccc2c1 | inconclusive: 17.8 µM [inhibitor, partial curve] | 
CCCCCC1CC(CC#CCN2CCOCC2)C(=O)O1 (stereo not given) |  | inactive: 1.22%
Cc1ccc(OCc2nc(-c3cccnc3)no2)cc1C | inconclusive: 25.1 µM [inhibitor, single point] | 
Cc1nnc(SCC(=O)Nc2ccc(Oc3ccccc3)cc2)n1N | inconclusive: 56.2 µM [inhibitor, single point] | 
